These are yes or no findings as the source states them, for the method shown. In cells and extracts the contact can be indirect. Some entries that bind do so weakly or less than the wild type.
Columns and labels:
[1] = target: T1, ARHGEF2 (also called GEFH1) (mouse (endogenous in mouse keratinocytes)) (UniProt Q60875); test: co-IP; anti-ARHGEF2 antibody and Protein A agarose on lysates of WT and PKP4-KO keratinocytes kept 24 h in HCM; normal rabbit IgG as control; IP buffer with 1% NP-40, 137 mM NaCl; western blot
T1 sequence: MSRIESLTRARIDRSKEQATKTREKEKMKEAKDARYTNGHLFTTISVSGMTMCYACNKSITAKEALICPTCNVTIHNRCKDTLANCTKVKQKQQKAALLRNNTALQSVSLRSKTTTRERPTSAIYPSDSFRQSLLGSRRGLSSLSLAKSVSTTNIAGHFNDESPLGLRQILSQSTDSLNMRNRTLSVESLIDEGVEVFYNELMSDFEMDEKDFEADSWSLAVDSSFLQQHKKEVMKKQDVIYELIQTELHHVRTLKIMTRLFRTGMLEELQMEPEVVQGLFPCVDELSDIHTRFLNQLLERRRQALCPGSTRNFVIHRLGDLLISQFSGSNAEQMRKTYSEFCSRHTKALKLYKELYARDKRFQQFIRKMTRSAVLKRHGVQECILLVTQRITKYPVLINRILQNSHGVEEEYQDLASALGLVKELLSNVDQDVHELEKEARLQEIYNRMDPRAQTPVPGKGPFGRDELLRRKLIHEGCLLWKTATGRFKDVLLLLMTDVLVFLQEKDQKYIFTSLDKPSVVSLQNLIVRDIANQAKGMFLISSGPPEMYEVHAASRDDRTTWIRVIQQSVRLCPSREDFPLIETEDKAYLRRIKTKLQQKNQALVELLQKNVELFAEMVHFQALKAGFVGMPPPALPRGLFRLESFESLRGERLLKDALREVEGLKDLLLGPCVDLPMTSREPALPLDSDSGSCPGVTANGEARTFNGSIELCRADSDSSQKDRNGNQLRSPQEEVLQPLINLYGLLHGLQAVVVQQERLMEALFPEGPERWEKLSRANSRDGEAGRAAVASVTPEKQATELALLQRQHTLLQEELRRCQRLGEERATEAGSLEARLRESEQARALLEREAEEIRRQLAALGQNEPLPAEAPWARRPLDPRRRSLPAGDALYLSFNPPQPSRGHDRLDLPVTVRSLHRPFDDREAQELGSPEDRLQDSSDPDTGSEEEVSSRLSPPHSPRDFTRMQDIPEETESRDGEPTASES

[2] = target: T2, ARHGAP23 (mouse (endogenous in mouse keratinocytes)) (UniProt Q69ZH9); test: co-IP; anti-ARHGAP23 antibody and Protein A agarose on lysates of WT and PKP4-KO keratinocytes kept 24 h in HCM; normal rabbit IgG as control; IP buffer with 1% NP-40, 137 mM NaCl; western blot
T2 sequence: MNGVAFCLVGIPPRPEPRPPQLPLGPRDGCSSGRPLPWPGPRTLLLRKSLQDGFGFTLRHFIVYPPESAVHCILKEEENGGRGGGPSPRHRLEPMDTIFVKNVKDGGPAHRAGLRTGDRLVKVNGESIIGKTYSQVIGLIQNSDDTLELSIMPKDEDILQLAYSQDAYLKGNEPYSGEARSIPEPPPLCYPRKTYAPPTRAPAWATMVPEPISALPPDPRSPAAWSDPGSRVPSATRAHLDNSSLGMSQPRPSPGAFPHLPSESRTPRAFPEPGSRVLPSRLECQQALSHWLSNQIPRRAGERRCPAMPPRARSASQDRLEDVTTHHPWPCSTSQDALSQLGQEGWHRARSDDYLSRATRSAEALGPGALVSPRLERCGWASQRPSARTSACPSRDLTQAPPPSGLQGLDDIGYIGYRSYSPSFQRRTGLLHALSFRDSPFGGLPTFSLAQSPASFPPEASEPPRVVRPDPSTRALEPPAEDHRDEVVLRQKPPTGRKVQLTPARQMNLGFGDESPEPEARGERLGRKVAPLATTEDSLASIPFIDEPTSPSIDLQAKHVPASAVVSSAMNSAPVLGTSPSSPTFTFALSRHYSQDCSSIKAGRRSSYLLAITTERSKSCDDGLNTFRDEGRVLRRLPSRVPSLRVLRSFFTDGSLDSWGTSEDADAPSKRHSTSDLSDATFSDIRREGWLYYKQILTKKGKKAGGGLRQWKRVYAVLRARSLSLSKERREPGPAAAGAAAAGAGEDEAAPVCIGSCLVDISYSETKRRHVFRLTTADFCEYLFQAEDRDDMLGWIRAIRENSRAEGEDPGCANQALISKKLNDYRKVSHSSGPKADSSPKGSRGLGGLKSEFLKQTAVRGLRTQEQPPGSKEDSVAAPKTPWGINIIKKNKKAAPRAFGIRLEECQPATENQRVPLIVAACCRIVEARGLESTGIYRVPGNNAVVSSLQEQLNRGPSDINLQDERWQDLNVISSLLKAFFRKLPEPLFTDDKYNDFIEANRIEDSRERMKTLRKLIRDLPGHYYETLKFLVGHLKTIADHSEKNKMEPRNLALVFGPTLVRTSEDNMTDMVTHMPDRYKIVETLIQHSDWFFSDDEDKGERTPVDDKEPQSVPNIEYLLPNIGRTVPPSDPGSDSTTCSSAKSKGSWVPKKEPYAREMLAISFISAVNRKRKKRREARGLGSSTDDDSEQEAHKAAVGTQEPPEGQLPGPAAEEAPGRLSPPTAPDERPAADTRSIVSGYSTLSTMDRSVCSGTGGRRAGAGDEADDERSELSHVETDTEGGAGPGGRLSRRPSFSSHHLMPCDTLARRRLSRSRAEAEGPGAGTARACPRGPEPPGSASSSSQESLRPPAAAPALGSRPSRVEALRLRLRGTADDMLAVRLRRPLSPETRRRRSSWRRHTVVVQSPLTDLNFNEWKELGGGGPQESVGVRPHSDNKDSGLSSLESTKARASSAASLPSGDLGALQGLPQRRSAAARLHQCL

B1: Plakophilin 4 (PKP4), endogenous in mouse keratinocytes (protein, UniProt Q68FH0 1-1190)
chain: MPAPEQGSLVEEGQPQTHQEAVSTGPGMEPETTATTILASVKEQELQFQRLTRELEVERQIVASQLERCRLGAESPSIASTSSTEKSFPWRSTDVPNPGVSKPRVSDTIHPNNYLIRTEPEQGTLYSPEQTSLHESEGSLGNSRSSTQMNSYSDSGYQEAGSFHNSQTVNKADSRQHPFTGSTSNHVVRTSRAEGQTLVQPSVANRAMRRVSSVPSRAQSPSYVTSTGVSPSRGSLRTSLGSGFGSPSVTDSRPLNPSAYSSSTLPAQRAASPYSQRPASPTAVRRVGSVTSRQTSNPNGPVPQYQTTTRVGSPLTLTDAQTRVASPSQGQVGSSSPKRSGMTAVPQHLGPSLQRTVHDMDQFGQQQYDIYERMVPPRPDSLTGLRSSYASQHSQLGQELRSAVSPDLHITPIYEGRTYYSPVYRSPNHGTVELQGSQTALYRTGSVGIGNLQRTSSQRSTLTYQRNNYALNTAATYAEPYRPVQYRVQECSYNRLQHTGPADDGATRSPSIDSIQKDPREFAWRDPELPEVIHMLQHQFPSVQANAAAYLQHLCFGDNKVKMEVYRLGGIKHLVDLLDHRVLEVQKNACGALRNLVFGKSTDENKIAMKNVGGIPALLRLLRKSIDAEVRELVTGVLWNLSSCDAVKMTIIRDALSTLTNTVIVPHSGWNNSSFDDDHKIKFQTSLVLRNTTGCLRNLSSAGEEARKQMRSCEGLVDSLLYVIHTCVNTSDYDSKTVENCVCTLRNLSYRLELEVPQARLLGLNELDDLLGKESPSKDSEPSCWGKKKKKKKRTPQEDQWDGVGPIPGLSKSPKGVEMLWHPSVVKPYLTLLAESSNPATLEGSAGSLQNLSAGNWKFAAYIRAAVRKEKGLPILVELLRMDNDRVVSSVATALRNMALDVRNKELIGKYAMRDLVNRLPGGNGPSILSDETVAAICCALHEVTSKNMENAKALADSGGIEKLVNITKGRGDRSSLKVVKAAAQVLNTLWQYRDLRSIYKKDGWNQNHFITPVSTLERDRFKSHPSLSTTNQQMSPIIQSVGSTSSSPALLGIREPRSEYDRTQPPMQYYNSQGDTTHKGLYPGSSKPSPIYISSYSSPAREQNRRLQHQQLYYQDDSTRKTLDAYRLYLQSPRSYEDPYCDDRVHFPASTDYSTQYGLKSTTNYVDFYSTKRPSYRAEQYPGSPDSWV
In the case of B1, the binding [1] is reported as “binds” and the binding [2] is reported as “binds”.
